This is an account of results in PMC10726135.

The list shows a part of the results. At the low end of the ranking the order means little. Measured with an extract: partners may take part in the binding.

The target in this assay is T1, HNF4alpha8 (COS-7 nuclear extract) (UniProt P41235-5).
T1 sequence: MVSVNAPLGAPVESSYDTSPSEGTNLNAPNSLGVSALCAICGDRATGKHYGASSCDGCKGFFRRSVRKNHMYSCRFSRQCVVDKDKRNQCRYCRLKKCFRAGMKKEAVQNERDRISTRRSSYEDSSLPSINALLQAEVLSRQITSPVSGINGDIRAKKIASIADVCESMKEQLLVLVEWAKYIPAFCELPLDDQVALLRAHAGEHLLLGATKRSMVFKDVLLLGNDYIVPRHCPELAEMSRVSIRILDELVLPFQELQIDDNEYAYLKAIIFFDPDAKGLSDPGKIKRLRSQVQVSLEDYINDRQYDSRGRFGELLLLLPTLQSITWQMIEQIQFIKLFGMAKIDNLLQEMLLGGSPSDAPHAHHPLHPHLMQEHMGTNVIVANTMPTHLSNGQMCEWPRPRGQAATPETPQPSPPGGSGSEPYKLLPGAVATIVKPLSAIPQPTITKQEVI
Description: protein-binding microarray. The conditions noted are these: COS-7 nuclear extract on double-stranded Agilent 4x180k PBM; binding buffer, salt, pH and temperature not given; high values mean tight binding; double strand, one strand shown; sequences stand for … in …GCCTAGGGAGATTAGAGTATCGGTCGA
Turning to CCTAAATCTAAGCTGGACTTTGAACTTCAT, the binding signal (log2 normalized intensity) was 9.68. On to CCCCGCCCGCAGCCCAGTCTTGGCCCCACC, for which the binding signal (log2 normalized intensity) worked out at 6.38. As for AAATAGATAAGTCCCTAAGAGGAATAGTCA, the figure is -1.35. For TTCTTATCTCACACAGTACTTTGTACATGG the value was 2.48; for GAGGCTTTGAGTCATTGAGGCTTTGCCTTA, -0.699; for TCTTTACACCATTGCAAGGATTCCAAATTT, 0.0367. For CAACCAAGGTTGCAGAGTGTCCCACTTCAG the value was -1.15; for CTAGGATTCTTGCATGATCGATCACACAGA, 0.0349. For the sequence AGAGCATCAGCAATGAACAAAGGTCGGTGG, the binding signal (log2 normalized intensity) stood at 3.98.

As to CAATCTCGAGATCATTTACATGTGTAACAA, the binding signal (log2 normalized intensity) was found to be 0.79. For GAGGTGAGAAGCCTGAAATGAGTTTCATTA, the binding signal (log2 normalized intensity) is -1.38. For GAGGGCTCAAGGTCTGCATGCCATTTTGCA the value was -1.01; for GTTATCTATGGAACATGGACTTTGAACCTC, 10.9.

Turning to GGCCAAGGCAGATATACCAGATAAGGCAGT, the binding signal (log2 normalized intensity) was -1.41.

As for AATGGATCTAAGGACAAAGTCCAAGGAAGG, the binding signal (log2 normalized intensity) is 5.5. As for AAACCCTGAGGGTCAACACAATCTGATAGT, the figure is 0.801; as for TAATGACTGATAATTGAAAACAGAGATTGG, 0.102.

In the case of CGGCGCCGGACGCGTCCTCGGCTCTGCGCA, the binding signal (log2 normalized intensity) is -1.34. As for ACGTGGAAGAAACTCATCTCCAGATAAGAC, the binding signal (log2 normalized intensity) was -1.37. In the case of TTTAACCTCCCTGCAGGTCTCTAAATGGTA, the binding signal (log2 normalized intensity) came to 0.259.

Take GATGCCTAGGATTCTTGCATGATCGATCAC: the binding signal (log2 normalized intensity) was 1.29. GGCCTTTGGAATCAAACAGATGTAGACATT: the binding signal (log2 normalized intensity) came out at 2.31. As for TTGTATGCTTAACTATGTTTATCAGAGCAA, the figure is -1.25. As for CTTCTCCTCCCCTCCCCCCAGTTCCCTGGG, the figure is 4.74; as for CTGAGCACTGTCTCAGGGTCCACATTCCAG, 3.5.

For the sequence CGCTCCTCTCTGTATTCCCTCTCTTCAGAA, the binding signal (log2 normalized intensity) is -1.09.

Regarding TTTGATCTGGGTGGGGGTGGAGGCAGCAGC, the binding signal (log2 normalized intensity) was -1.34. Consider GAGGACTGAGCCCGCTCCACTCCGGGCGAT, for which the binding signal (log2 normalized intensity) is -1.33. For GAGGTCATGTACATGAAAGCAAGTTAAAAC the value was 0.558; for CCTGGAGCAAACTTACTCTGGGGGAACCTC, -1.

Consider ATTAGGACCTGTTTGTCTTGCTGGGGAGAT, for which the binding signal (log2 normalized intensity) came to 0.928.

Regarding TCAACACTGAAATAGCATACCTTTATTAAG, the binding signal (log2 normalized intensity) is -1.33. Regarding GTTGAGTGAATGGATGGATCCGCAGCCAGG, the binding signal (log2 normalized intensity) was -1.22.

TCATATTTGTTATATTTGTTATACCAGACA: the binding signal (log2 normalized intensity) stood at 1.85. For AAACAATGACCTCTGCACCCTTCCCTGAGT the value was 4.47. For ACATCTCCGAGTCCAGGGATAACAGTCCTG the value was -0.837; for TTCTTTTTGAAGCAAAGCCTTTGAGCAGAT, 0.807. On to CCTCTTTTAAGAAGCCAGTGTCTATTTACA, for which the binding signal (log2 normalized intensity) was found to be 1.03. Consider GGATTTTTTGGGTAAAGTCCAGGCAGGACA, for which the binding signal (log2 normalized intensity) stood at 2.29. With ACACCGTATCATCAAACCTGTTATTTGCGC, the binding signal (log2 normalized intensity) was found to be 0.609.

Regarding TTTTTTTTTTTTTTTTTTTTGAGATGGAAT, the binding signal (log2 normalized intensity) is 2.54. CAGAGTAGCCTATCAGAAGAATCTGTATCA: the binding signal (log2 normalized intensity) was -1.33. As for CCTTGGCCTCCCGGAGAGGCCCCGCCCCGT, the binding signal (log2 normalized intensity) was 4.86. As for TCTGGGAAATGTAGTTCCGGAGAACACGGA, the figure is -0.979; as for TTCAAAGGACAGACTTTGGACCTGGCCCTC, 6.56; as for CATGTTGAGTGGAATATGAGGTCAGGGTTC, 3.26. As for TCCACATCAGAGAGTTCAAACTCTGAAGTT, the figure is 1.61; as for CTTTCCTAATGGTACCATCTGCCACTCATA, 0.0159. As to GGTACAGAAACAGCTGGATTGTTACATCAT, the binding signal (log2 normalized intensity) was -0.216. For GGTCCATAAAACCAGTCAGGCAAACAACAG the value was -1.42. Consider TTTTAATGTGTGCTTTCAGGTGTGAACCCA, for which the binding signal (log2 normalized intensity) stood at 3.65. Turning to AGGGACTAAGCTTGTAGACCAAGGAGGCCT, the binding signal (log2 normalized intensity) is -1.23. For AGCCAAGCTCCCCTTTTAAACTGAAGCATG the value was -1.36; for TTTAACTTGGCAAGGGGAGGCACTCATGGT, -1.21; for GGGTCAAAGTCTGGATCCGTTAACAGCGGC, 3.04. As for ATGTTAGTCTTGAGTCCCAAAGTCCAAAGG, the figure is 6.25. As for GAGGATGGGAAGTCCAAAGTCTGCAGGGTA, the figure is 3.76.

Regarding GTCTCTCTCATTCACACCCTCAGCTGATGG, the binding signal (log2 normalized intensity) was -1.08. As for CACAGCAGAGGAGCCCTGGGCTCAGAAATC, the figure is -1.39. Take CAAACGCCCCTTGGATGAATGGCTGATTGG: the binding signal (log2 normalized intensity) is -0.218. On to AAGCCTGATGAAGCCTATAGTGCTCCCTCC, for which the binding signal (log2 normalized intensity) was -0.779. For ACTTCGACCTCACATTGTAGCTAAAATGTT the value was 0.171. As for CAGGTTCTGCAACACTTTCTAAGGACACAA, the figure is -1.36; as for GCAGAGAAGACTTGGGGGAGGAGGGCAACC, -1.3. As for TCTCGGTCAAACCTTTGACCCTTTATAATC, the figure is 6.91; as for ACAGGTGTGGGTTCAAATCCATTCAGCAGC, -0.121. As for GGCTTCTTATCAGCAGCTGGGGTGACTGAT, the binding signal (log2 normalized intensity) came to 0.592. For TGCTCCAGGCCGGCTTGCGTCCCCAGGTGA the value was -1.28. In the case of AAGTCAGAGGCCCAGCAAGGAGAAAGCGAG, the binding signal (log2 normalized intensity) was -1.4. As for ACTTAGGACACAAAGAGTTCAGAGAGGGAT, the figure is -1.02; as for TGAAGACAGGCCAGGGTGATCAAACATCAC, -1.35.

With CTGGCTGGGCAGGCTCCCTCCCTGGGAGGC, the binding signal (log2 normalized intensity) is -1.21. For CGCCGGGCGCCGCTCTGAGTGACCTTTCAC the value was 5.71.
